Measured values reported in publication PMC12495329.
These are yes or no findings as the source states them, for the method shown. Binding seen in cells or lysates may run through a third protein. Some results given as binding are weak or reduced against the parent protein; the word gives no strength. Sequences can lack the tags named with a protein.

Chains of the proteins cited; added tags and fusions are not shown.
UniProt Q9H4L4: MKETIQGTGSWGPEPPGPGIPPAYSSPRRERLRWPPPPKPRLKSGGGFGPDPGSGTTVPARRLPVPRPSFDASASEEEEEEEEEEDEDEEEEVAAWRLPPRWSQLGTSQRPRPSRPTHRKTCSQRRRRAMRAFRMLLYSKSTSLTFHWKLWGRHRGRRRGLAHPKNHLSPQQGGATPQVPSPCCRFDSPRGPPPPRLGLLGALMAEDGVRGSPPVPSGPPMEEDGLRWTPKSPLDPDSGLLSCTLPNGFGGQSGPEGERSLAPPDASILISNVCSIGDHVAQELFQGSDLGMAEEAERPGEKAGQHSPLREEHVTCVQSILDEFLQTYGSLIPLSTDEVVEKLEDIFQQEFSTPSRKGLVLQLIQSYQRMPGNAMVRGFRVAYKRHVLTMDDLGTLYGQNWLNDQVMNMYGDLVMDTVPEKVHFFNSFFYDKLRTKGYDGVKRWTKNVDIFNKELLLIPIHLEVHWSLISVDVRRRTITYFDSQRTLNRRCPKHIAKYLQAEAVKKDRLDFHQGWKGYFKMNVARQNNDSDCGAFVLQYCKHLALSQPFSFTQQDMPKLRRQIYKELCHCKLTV

What was measured:
Assay in all cases: co-IP; reciprocal: COS-7 cotransfected with Twin-Strep-Tag-GRHL2 and FLAG-SENP; lysate on anti-Flag magnetic beads holding the FLAG-SENPs, 4 h, 4 °C; Western blot
[1] = target: FLAG-tagged SENP-3 (WT, full-length) (human) (UniProt Q9H4L4)
[2] = target: T1, FLAG-tagged SENP-2 (WT, full-length) (human) (UniProt Q9HC62)
T1 sequence: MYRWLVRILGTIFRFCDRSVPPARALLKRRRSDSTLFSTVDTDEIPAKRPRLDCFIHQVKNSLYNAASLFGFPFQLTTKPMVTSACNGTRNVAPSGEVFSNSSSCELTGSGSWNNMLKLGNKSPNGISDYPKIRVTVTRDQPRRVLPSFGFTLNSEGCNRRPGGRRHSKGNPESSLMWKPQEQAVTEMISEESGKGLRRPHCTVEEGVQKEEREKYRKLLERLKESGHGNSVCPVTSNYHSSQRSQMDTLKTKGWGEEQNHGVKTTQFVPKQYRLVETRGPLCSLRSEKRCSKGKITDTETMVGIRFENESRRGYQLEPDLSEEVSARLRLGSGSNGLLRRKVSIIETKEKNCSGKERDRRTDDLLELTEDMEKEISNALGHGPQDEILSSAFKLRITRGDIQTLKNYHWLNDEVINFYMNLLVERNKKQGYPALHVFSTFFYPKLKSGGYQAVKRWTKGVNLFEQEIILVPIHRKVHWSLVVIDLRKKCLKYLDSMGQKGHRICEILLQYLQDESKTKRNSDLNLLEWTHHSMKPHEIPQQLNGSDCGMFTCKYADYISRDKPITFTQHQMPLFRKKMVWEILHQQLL

[3] = target: T2, FLAG-tagged SENP-1 (WT, full-length) (human) (UniProt Q9P0U3)
T2 sequence: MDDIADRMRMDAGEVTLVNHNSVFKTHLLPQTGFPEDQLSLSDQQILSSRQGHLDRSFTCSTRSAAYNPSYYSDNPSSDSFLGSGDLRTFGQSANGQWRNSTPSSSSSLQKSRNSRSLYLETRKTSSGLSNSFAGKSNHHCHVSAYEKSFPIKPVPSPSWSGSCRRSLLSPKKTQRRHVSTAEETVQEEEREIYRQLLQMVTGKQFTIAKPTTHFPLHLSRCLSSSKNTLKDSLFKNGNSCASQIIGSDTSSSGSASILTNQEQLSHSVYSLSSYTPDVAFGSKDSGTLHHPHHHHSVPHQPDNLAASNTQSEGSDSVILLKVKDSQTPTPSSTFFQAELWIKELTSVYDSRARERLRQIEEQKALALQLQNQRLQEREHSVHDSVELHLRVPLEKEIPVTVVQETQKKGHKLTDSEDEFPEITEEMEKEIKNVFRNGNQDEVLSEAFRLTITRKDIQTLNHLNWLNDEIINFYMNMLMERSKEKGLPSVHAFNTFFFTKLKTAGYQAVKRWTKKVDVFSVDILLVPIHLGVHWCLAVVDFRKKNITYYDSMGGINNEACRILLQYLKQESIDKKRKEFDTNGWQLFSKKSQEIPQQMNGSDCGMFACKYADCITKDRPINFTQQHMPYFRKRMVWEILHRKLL

B1: GRHL2 with an N-terminal Twin-Strep-Tag (protein, UniProt Q6ISB3 1-625)
chain: MSQESDNNKRLVALVPMPSDPPFNTRRAYTSEDEAWKSYLENPLTAATKAMMSINGDEDSAAALGLLYDYYKVPRDKRLLSVSKASDSQEDQEKRNCLGTSEAQSNLSGGENRVQVLKTVPVNLSLNQDHLENSKREQYSISFPESSAIIPVSGITVVKAEDFTPVFMAPPVHYPRGDGEEQRVVIFEQTQYDVPSLATHSAYLKDDQRSTPDSTYSESFKDAATEKFRSASVGAEEYMYDQTSSGTFQYTLEATKSLRQKQGEGPMTYLNKGQFYAITLSETGDNKCFRHPISKVRSVVMVVFSEDKNRDEQLKYWKYWHSRQHTAKQRVLDIADYKESFNTIGNIEEIAYNAVSFTWDVNEEAKIFITVNCLSTDFSSQKGVKGLPLMIQIDTYSYNNRSNKPIHRAYCQIKVFCDKGAERKIRDEERKQNRKKGKGQASQTQCNSSSDGKLAAIPLQKKSDITYFKTMPDLHSQPVLFIPDVHFANLQRTGQVYYNTDDEREGGSVLVKRMFRPMEEEFGPVPSKQMKEEGTKRVLLYVRKETDDVFDALMLKSPTVKGLMEAISEKYGLPVEKIAKLYKKSKKGILVNMDDNIIEHYSNEDTFILNMESMVEGFKVTLMEI
- binding [1]: no binding
- binding [2]: binds
- binding [3]: binds
